This is an account of results in publication PMC4336329 (PLoS ONE, 2015).

In all, about 310,000 compounds went through this assay and about 2,200 (0.71%) showed an effect of 50% or more. The effect is printed as a negative number. The list shows a part of the results.

This experiment deals with human ether-à-go-go-related gene (hERG) potassium channel (human, UniProt Q12809). Kind of experiment: primary screen, population patch clamp on CHO cells stably expressing hERG.
human ether-à-go-go-related gene (hERG) potassium channel, sequence (Q12809 whole entry, looked up): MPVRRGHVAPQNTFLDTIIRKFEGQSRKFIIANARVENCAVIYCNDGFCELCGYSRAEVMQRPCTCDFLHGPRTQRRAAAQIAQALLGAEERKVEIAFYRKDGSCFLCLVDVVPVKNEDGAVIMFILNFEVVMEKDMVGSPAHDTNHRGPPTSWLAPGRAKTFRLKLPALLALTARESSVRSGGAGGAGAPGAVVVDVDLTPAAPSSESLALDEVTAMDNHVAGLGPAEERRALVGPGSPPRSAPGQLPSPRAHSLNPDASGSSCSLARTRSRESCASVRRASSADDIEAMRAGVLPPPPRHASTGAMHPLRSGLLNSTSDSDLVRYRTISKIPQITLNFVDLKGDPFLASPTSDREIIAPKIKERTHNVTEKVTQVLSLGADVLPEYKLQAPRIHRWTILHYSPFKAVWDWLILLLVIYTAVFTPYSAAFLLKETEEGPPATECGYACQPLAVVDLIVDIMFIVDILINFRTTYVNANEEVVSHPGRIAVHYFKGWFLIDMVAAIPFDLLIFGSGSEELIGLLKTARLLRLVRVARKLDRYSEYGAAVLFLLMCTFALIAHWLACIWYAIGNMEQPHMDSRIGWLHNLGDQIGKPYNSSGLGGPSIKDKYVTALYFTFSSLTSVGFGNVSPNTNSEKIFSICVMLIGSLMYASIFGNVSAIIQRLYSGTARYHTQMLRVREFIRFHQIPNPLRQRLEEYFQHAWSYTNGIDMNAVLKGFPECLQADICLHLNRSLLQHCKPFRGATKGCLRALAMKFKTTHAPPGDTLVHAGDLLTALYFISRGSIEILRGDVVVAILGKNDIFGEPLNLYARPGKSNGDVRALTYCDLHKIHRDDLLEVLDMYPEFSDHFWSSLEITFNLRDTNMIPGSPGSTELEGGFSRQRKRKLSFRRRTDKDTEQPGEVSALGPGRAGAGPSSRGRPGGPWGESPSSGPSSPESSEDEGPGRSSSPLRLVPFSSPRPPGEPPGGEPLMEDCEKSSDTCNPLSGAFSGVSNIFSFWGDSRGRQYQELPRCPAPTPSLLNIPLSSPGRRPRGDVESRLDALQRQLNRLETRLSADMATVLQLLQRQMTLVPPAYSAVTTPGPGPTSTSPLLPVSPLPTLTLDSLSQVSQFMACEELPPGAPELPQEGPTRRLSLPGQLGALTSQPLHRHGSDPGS
Take `CN(C(=O)c1ccc(COc2ccccc2Cl)o1)c1ccccc1`: the “hERG current change (%, negative = inhibition) at 1uM” value is given as 7.28%.
The result for `CCOC(=O)C1=C(C)N=c2s/c(=C\C(=O)OC)c(=O)n2C1c1ccc(OC)cc1` (stereo not shown) reads -9.14%; that for `CC(=O)NC(CCCCNC(=S)NC1CCCCC1)C(=O)O` (stereo not shown), 8.23%.
The result for `Cc1ncc([N+](=O)[O-])n1CCOC(=O)Nc1ccc(Cl)c(Cl)c1` reads 1.97%; that for `CCCCn1nc2cc(C(=O)NC3CCCc4ccccc43)ccc2c1OCC` (stereo not shown), 1.34%; that for `CC(=O)N1C(C(=O)O)CSC1c1cccc(C)c1` (stereo not shown), 24.1%.
Consider `CCCc1nnc(SCC(=O)NC2CC2)n1CC`, for which the “hERG current change (%, negative = inhibition) at 1uM” value was 16.9%.
As to `O=C(O)C1Nc2c(Cl)cc(Cl)c(Cl)c2C2C=CCC12` (stereo not shown), the “hERG current change (%, negative = inhibition) at 1uM” value came to 14.2%.
Consider `Cc1ccc(OCCOC(=O)CN2C(=O)NC3(CCCC3)C2=O)cc1`, for which the “hERG current change (%, negative = inhibition) at 1uM” value came to 16.2%.
Then `CN(C)c1ccc(/C=C(\NC(=O)c2ccccc2)C(=O)NCCN2CCOCC2)cc1`, with 8%; and `COc1ccc(C(=O)C/C(=C\C(=O)c2ccc(C)cc2)c2ccccc2)cc1`, with 12.4%; and `CN1CCN(S(=O)(=O)c2ccc(NC(=O)C3CCCCC3)cc2)CC1`, with -4.12%.
The result for `NC(=O)CC(NC(=O)c1ccc(Br)cc1)c1ccc(N2CCC(Cc3ccccc3)CC2)c([N+](=O)[O-])c1` (stereo not shown) reads -5.26%.
Then `CCOC(=O)c1ccc(NC(=O)c2ccco2)cc1`, with 8.74%.
Regarding `CCC(=O)N1N=C(c2ccc(NS(C)(=O)=O)cc2)CC1c1ccc(C)cc1` (stereo not shown), the “hERG current change (%, negative = inhibition) at 1uM” value is on record as -19.6%.
Consider `COc1ccc(NC(=S)NCCc2c(C)[nH]c3ccc(OC)cc23)cc1`, for which the “hERG current change (%, negative = inhibition) at 1uM” value is reported as 8.44%.
Then `COc1ccc(S(=O)(=O)NCCc2c[nH]c3ccc(Cl)cc23)cc1`, with 21.2%.
Then `O=C(/C=C/c1ccccc1O)c1ccco1`, with 9.1%.
As for `Cc1ccc(C(=O)N2CCN(c3ccccc3F)CC2)cc1NC1=NC2CS(=O)(=O)CC2S1` (stereo not shown), the “hERG current change (%, negative = inhibition) at 1uM” value worked out at 17.8%.
Then `O=C(CSc1nc2ccccc2c(=O)n1CCCN1CCOCC1)Nc1cccc(S(=O)(=O)N2CCCCCC2)c1`, with -9.75%.
As to `O=C(NCCC(=O)N1CCC2(CC1)NCCc1[nH]cnc12)c1ccc(F)c(F)c1`, the “hERG current change (%, negative = inhibition) at 1uM” value is on record as 9.73%.
Then `O=C(C1COc2ccccc2O1)N1CCCC1` (stereo not shown), with 17.5%; and `O=[N+]([O-])/C(Cl)=C1\NCCN1Cc1ccc(Cl)nc1`, with 8.99%; and `Cc1nn(-c2cccc(Cl)c2)nc1C(=O)Nc1cccc(C(=O)NC2CC2)c1`, with 4.59%.
The result for `CCOC(=O)c1cc(CC)sc1NC(=O)c1ccc(N2CCOCC2)c([N+](=O)[O-])c1` reads 5.05%; that for `Cc1cc(=O)n2[nH]c(SCc3c(F)cccc3Cl)nc2n1`, 6.17%.
Then `O=C(c1ccc(C(F)(F)F)cc1)N1CCN(c2ccc(N3CCOCC3)nn2)CC1`, with -37.5%.
Turning to `COc1ccc(/C=C/C(=O)NCCc2nc3ccccc3[nH]2)cc1`, the “hERG current change (%, negative = inhibition) at 1uM” value is 20%.
Then `Clc1ccc(C2=CSC3=Nc4cccc5cccc(c45)N23)cc1`, with 8.39%; and `COC(=O)/C=C/c1ccc2c(c1)OCO2`, with 14.9%; and `CC[C@@H](CO)NC(=O)[C@@H]1C=C2c3cccc4c3c(cn4C)C[C@H]2N(C)C1.O=C(O)/C=C\C(=O)O`, with 13.7%.
Then `CCCn1c(N)c(N(CCOC)C(=O)Cc2ccc(S(=O)(=O)N3CCOCC3)s2)c(=O)[nH]c1=O`, with 21.1%; and `O=C(NNc1c2ccccc2nc2ccccc12)c1ccc(O)cc1`, with 1.1%.
The result for `COCCn1c(C)cc(C(=O)COC(=O)c2ccc(NC(=O)CC#N)cc2)c1C` reads 10.1%; that for `C/C(=N\N=c1/scc(C)n1Cc1ccco1)c1cccc([N+](=O)[O-])c1`, 9.24%.
Take `COc1ccccc1Nc1nc(N)nc(CN2CCOCC2)n1`: the “hERG current change (%, negative = inhibition) at 1uM” value is 14.7%.
Then `c1ccc2c(c1)Oc1ccccc1S2`, with 9.28%; and `O=C(CCS(=O)(=O)c1ccccc1Cl)Nc1ccc(S(=O)(=O)Nc2ncccn2)cc1`, with 10.9%.
Then `CCOc1cc(N2CCOCC2)c(OCC)cc1NC(=O)C1CCCC1`, with 16.6%; and `O=C(COc1ccccc1Cl)NCc1ccccc1`, with 5.11%.
The result for `Cc1ccc(C(=O)N2CCCC(Nc3ccc(F)c(F)c3)C2)cn1` (stereo not shown) reads -18.2%; that for `O=C(CCCCCN1C(=O)c2ccccc2C1=O)Nc1ccc(S(=O)(=O)N2CCCCC2)cc1`, -15.1%.
`COc1ccc(Nc2oc(-c3ccc(OC)cc3)nc2C#N)cc1`: the “hERG current change (%, negative = inhibition) at 1uM” value amounted to 15.3%.
The result for `Cc1oc2c(cc(NS(=O)(=O)c3ccc(F)cc3)c3ccccc32)c1C(=O)O` reads 9.85%; that for `COc1ccc(/C=N/NC(=O)CNC(=O)/C=C/c2ccccc2OC)cc1`, 11.2%.
Take `C=CCN1C(=O)/C(=C\c2cccc(OC(=O)c3ccco3)c2)SC1=S`: the “hERG current change (%, negative = inhibition) at 1uM” value is on record as 3.23%.
Regarding `O=C(NC1CCCC1)C1CCCN1C(=O)Oc1ccccc1` (stereo not shown), the “hERG current change (%, negative = inhibition) at 1uM” value is given as 15.1%.
Then `O=C1C=C(c2ccc(F)cc2OCc2ccccc2)C[C@@H](c2ccc(Cl)cc2)C1`, with 0.618%.
Then `COCc1ccc(C(=O)N2CCCC(N(C)CCc3ccc(OC)c(OC)c3)C2)s1` (stereo not shown), with -23.9%; and `COc1ccc(OCC(=O)Nc2ccc(C)cc2)cc1`, with 13.8%.
The result for `COc1cccc(C(=O)Nc2nnc(SCC(=O)NC3CCCC3)s2)c1` reads 15.4%.
In the case of `CC(C)N(Cc1ccccc1)S(=O)(=O)c1cccs1`, the “hERG current change (%, negative = inhibition) at 1uM” value stood at 6.18%.
The result for `CC1=C(C(=O)OCc2ccccc2)C(c2cccc([N+](=O)[O-])c2)NC(=O)N1C` (stereo not shown) reads 6.25%.
As to `CCOC(=O)CSc1nnc(C)c(C)n1`, the “hERG current change (%, negative = inhibition) at 1uM” value is -9.33%.
As to `CCc1ccc(-c2cc(C)no2)cc1S(=O)(=O)N1CCN(C(=O)c2ccco2)CC1`, the “hERG current change (%, negative = inhibition) at 1uM” value is recorded as -4.73%.
The result for `COCCN(Cc1cc2cccc(C)c2[nH]c1=O)C(=O)c1ccccc1` reads 13.8%; that for `CCOc1ccc(C2C(C(=O)C3CC3)N3C=C(C#N)C=CC3C2(C#N)C#N)cc1` (stereo not shown), 8.43%.
Then `O=C(NCCCN1CCCC1=O)c1csc2ccccc12`, with -13.5%; and `COC(=O)CSc1nnc(-c2sc3ccccc3c2Cl)o1`, with 4.96%.
Then `O=C(COc1ccccc1)N1CCN(C2CC3CCC2C3)CC1` (stereo not shown), with 9.89%; and `CCCn1ncc(CN2CCN(CCc3ccccc3)C(CCO)C2)c1C` (stereo not shown), with -7.62%.
As for `Cc1cc(C(F)(F)F)n2ncc(C(=O)O)c2n1`, the “hERG current change (%, negative = inhibition) at 1uM” value came out at 4.66%.
Regarding `COc1ccc(S(=O)(=O)Nc2nnc(Cc3ccc(OC)c(OC)c3)s2)cc1`, the “hERG current change (%, negative = inhibition) at 1uM” value was 15.4%.
The result for `COc1cc(C2CC(=O)NC3=C2C(=O)CC(C)(C)C3)cc(OC)c1O` (stereo not shown) reads 13.7%; that for `Cc1cc(C(=O)COC(=O)c2ccc3c(c2)OCO3)c(C)n1CC1CCCO1` (stereo not shown), -9.99%.
Then `O=C(N1CCCCC1)C12CC3CC(C1)CC(C(=O)N1CCCCC1)(C3)C2`, with 1.5%.
The result for `CC(=O)c1c(C)[nH]c(C(=O)OCc2ccc(Br)cc2)c1C` reads -1.08%; that for `O=C(Nc1ccncc1)c1cc(S(=O)(=O)N2CCOCC2)ccc1Cl`, -17.4%.
For the compound `Cc1ccccc1C(=O)NNC(=O)Nc1ccccc1`, the “hERG current change (%, negative = inhibition) at 1uM” value is reported as 6.51%.
Then `COc1ccc(CNC(=O)c2ccc(CS(=O)(=O)c3ccc(Br)cc3)o2)cc1`, with -2.93%; and `CN(C)S(=O)(=O)c1ccc(C(=O)Nc2cccc(S(=O)(=O)NC3=NCCC3)c2)cc1`, with 9%.
The result for `COc1cccc(-c2cccc(NC(=O)C3CCN(Cc4cnn(C)c4)CC3)c2)c1` reads 19.9%; that for `CCn1ccnc1CN(C)Cc1cn(-c2ccc(C)cc2)nc1-c1ccc(F)cc1`, 3.83%.
For `C=C(C)CSc1nc2sc3c(c2c(=O)n1-c1ccccc1)CCN(C)C3`, the “hERG current change (%, negative = inhibition) at 1uM” value was determined as 14.5%.
With `CCc1ccc(Nc2n[n+](-c3ccccc3)c(-c3c(Cl)cccc3Cl)s2)cc1.[Cl-]`, the “hERG current change (%, negative = inhibition) at 1uM” value is -7.83%.
Then `CC1COc2c(N3CCN(C)CC3)c(F)cc3c(=O)c(C(=O)O)cn1c23` (stereo not shown), with 15.6%.
In the case of `CC1=N/C(=C\c2ccc([N+](=O)[O-])cc2)C(=O)N1c1ccc(Br)c(C)c1`, the “hERG current change (%, negative = inhibition) at 1uM” value is reported as 10.8%.
Then `Cc1ccc(-c2nn(-c3ccccc3)cc2C(=O)NCCCN2CCCC2=O)cc1`, with -3%.
The result for `CC/C(CC(=O)C(F)(F)F)=N\NC(=O)/C(C#N)=C/N(C)C` reads 16.5%.
`c1cc(-c2nnc3n2CCCCC3)ccn1`: the “hERG current change (%, negative = inhibition) at 1uM” value is reported as 7.04%.
Then `CC(Sc1nnc(-c2ccco2)n1C)C(=O)NC1CCCC1` (stereo not shown), with 15%; and `CC(O)[C@H]1CN=C(N)N1CCCCC1CCCCC1` (stereo partly shown), with 12.5%; and `COc1ccc(NC2SC(=O)N(CC(=O)O)C2=O)cc1` (stereo not shown), with 9.88%.
The result for `CCCCn1c(SCC(N)=O)nc2sc3c(c2c1=O)CCC3` reads 3.51%.
Then `CC(C)(C)C(=O)Nc1ccnn1C1CCN(C(=O)c2ccc(Cl)cc2F)CC1`, with 10.9%.
Consider `Cc1ccc(Nc2nnc(-c3ccc(N4CCOCC4)c([N+](=O)[O-])c3)c3ccccc23)cc1`, for which the “hERG current change (%, negative = inhibition) at 1uM” value is -3.96%.
The result for `Cc1cc(C)cc(Oc2coc3c(CN(C)C)c(O)ccc3c2=O)c1` reads 7.42%.
Then `CCOc1cccc(-c2c(C(=O)N/N=C(\C)c3cccnc3)nnn2-c2nonc2N)c1`, with 12.2%.
